Source: the supplement of paper PMC6135742
Where a name gives a salt, the structure may show the parent alone. ± gives the standard deviation of the averaged measurements. Whole data set: some 2,600 compounds, median “MBP+ mature oligodendrocyte number relative to DMSO vehicle control” near -0.34, cut for the highest 2% near 13. This is one part of the list.

System: jimpy (Plp1 jimpy) mouse iPSC-derived oligodendrocyte progenitor cells
Assay: MBP+ mature oligodendrocyte number relative to DMSO vehicle control (SDs above negative control mean); higher = more surviving jimpy oligodendrocytes (rescue)
Conditions: 10 µM; 3 days
Description: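 Primary phenotypic screen of >3,000 bioactive compounds (Selleck L1700 and Sigma LO1280 libraries) at a single dose of 10 µM. Compounds were added to jimpy (Plp1 mutant) mouse iPSC-derived OPCs at the start of thyroid hormone-induced oligodendrocyte differentiation, one well per compound in 384-well plates. After 3 days cells were stained for MBP, Sox10 and DAPI and imaged with an Operetta system. MBP+ oligodendrocyte number and total cell number were expressed as the number of SDs above the mean of the DMSO negative control on the same plate (n=16 control wells per plate). Hits were defined as >=4 SD for oligodendrocytes and >=2 SD for total cells.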

SMILES	MBP+ mature oligodendrocyte number
CS(=O)(=O)c1ccc(C2=C(c3ccccc3)C(=O)OC2)cc1 [Rofecoxib]	-0.184 ± 2.6
CC(=O)c1cc([N+](=O)[O-])c(Sc2cccc(Cl)c2Cl)s1	-6.1
CN(C)CCC=C1c2ccccc2CCc2ccccc21 [Amitriptyline HCl]	-4.98
CN(C)CCC=C1c2ccccc2CCc2ccccc21 [Amitriptyline hydrochloride]	-2.91
Cc1ccnc2c1NC(=O)c1cccnc1N2C1CC1 [Nevirapine]	-1.1
Cc1[nH]c(=O)c(C#N)cc1-c1ccncc1 [Milrinone]	-0.44 ± 0.72
O=C(Nc1ccccc1)c1ccccc1O [Salicylanilide]	3.03
COc1ccc(C(=O)Nc2sc3c(c2C(N)=O)CCCC3)cc1OC	0.753
O=NO [Sodium Nitrite]	3.11
N[C@@H](Cn1ccc(=O)c(O)c1)C(=O)O [L-Mimosine from Koa hoale seeds]	-0.747
COc1cc(Nc2ncc(F)c(Nc3ccc4c(n3)NC(=O)C(C)(C)O4)n2)cc(OC)c1OC	-3.63
COc1cc(Nc2ncc(F)c(Nc3ccc4c(n3)NC(=O)C(C)(C)O4)n2)cc(OC)c1OC [R406 (free base)]	-4.7
CC(C)(Oc1ccc(Cl)cc1)C(=O)O [Clofibric Acid]	2.94
CC(=O)[C@@]1(O)CC[C@H]2[C@@H]3CCC4=CC(=O)CCC4=C3[C@@H](c3ccc(N(C)C)cc3)C[C@@]21C [Ulipristal]	-1.01
COc1cc2ncc(-c3ccccc3)nc2cc1OC [Tyrphostin AG 1296]	0.992
CS(=O)(=O)c1cccc(CNc2nc(Nc3ccc4c(c3)CCC(=O)N4)ncc2C(F)(F)F)c1	-4.54 ± 0.86
CCCCCCCCCCC[C@@H](C[C@@H]1OC(=O)[C@H]1CCCCCC)OC(=O)[C@H](CC(C)C)NC=O [Orlistat]	0.163
CC1(C)CCC(CN2CCN(c3ccc(C(=O)NS(=O)(=O)c4ccc(NCC5CCOCC5)c([N+](=O)[O-])c4)c(Oc4cnc5[nH]ccc5c4)c3)CC2)=C(c2ccc(Cl)cc2)C1	-2.66
S=C(Nc1ccccc1)Nc1nccs1 [1-Phenyl-3-(2-thiazolyl)-2-thiourea]	-1.26
COCCOc1cc2nc[nH]c(=O)c2cc1OCCOC	-1.06
CSc1ccc(C(=O)c2[nH]c(=O)[nH]c2C)cc1 [Enoximone]	0.659

SMILES	MBP+ mature oligodendrocyte number
COc1ccc(-c2ccc(=N)n(CCCC(=O)O)n2)cc1	0.896
COc1cc(OC)c(C(=O)CCCN2CCCC2)c(OC)c1 [Buflomedil HCl]	10.4
CC(=O)NCCc1c[nH]c2ccc(O)cc12 [N-Acetyl-5-hydroxytryptamine]	-0.511
N#CC(c1ccc(Cl)cc1)c1c(Cl)cc(-n2ncc(=O)[nH]c2=O)cc1Cl (stereo unspecified) [Diclazuril]	0.973
O=c1ccc2ccc(O)c(O)c2o1 [Daphnetin]	0.283 ± 0.24
CC(C)(C)C(=O)OCOP(=O)(COCCn1cnc2c(N)ncnc21)OCOC(=O)C(C)(C)C [Adefovir Dipivoxil]	< -5.15
Nc1nc(N)c2nc(-c3cccc(O)c3)cnc2n1	-5.77
COc1ccccc1N1CCN(CC(O)COc2cccc3ccccc23)CC1 (stereo unspecified) [Naftopidil dihydrochloride]	-0.127
COc1ccccc1N1CCN(CC(O)COc2cccc3ccccc23)CC1 (stereo unspecified) [Naftopidil]	2.07
COc1ccccc1N1CCN(CC(O)COc2cccc3ccccc23)CC1 (stereo unspecified) [Naftopidil DiHCl]	5.87
CN1CCC(=C2c3ccccc3CC(=O)c3sccc32)CC1 [Ketotifen Fumarate]	-2.27
CN1CCC(=C2c3ccccc3CC(=O)c3sccc32)CC1 [Ketotifen fumarate]	-2.95
O=C(O)CC[C@H]1CC[C@@](c2cc(F)ccc2F)(S(=O)(=O)c2ccc(Cl)cc2)CC1	3.68
CCCN(CCC)C(=O)C(CCC(=O)O)NC(=O)c1ccccc1 (stereo unspecified) [Proglumide]	-0.402
CN1CCc2ccccc2Cc2[nH]c3ccccc3c2CC1	0.539
CC(C)(Sc1cc(C(C)(C)C)c(O)c(C(C)(C)C)c1)Sc1cc(C(C)(C)C)c(O)c(C(C)(C)C)c1 [Probucol]	-4.58
Nc1ccc(-c2nc3ccc(-c4nc5ccc(N)cc5[nH]4)cc3[nH]2)cc1	-1.97
C=CC(=O)Nc1cccc(Nc2nc(Nc3ccc(N4CCN(C(C)=O)CC4)cc3OC)ncc2C(F)(F)F)c1	-6.1
CS(=O)(=O)CCNCc1ccc(-c2ccc3ncnc(Nc4ccc(OCc5cccc(F)c5)c(Cl)c4)c3c2)o1	-6.52
Nc1c(Br)cc(Br)cc1CN[C@H]1CC[C@H](O)CC1 [Ambroxol HCl]	3.91
